From PubChem BioAssay AID485294 (National Center for Advancing Translational Sciences (NCATS), 2010)
The whole screen tested about 370,000 compounds, of which about 150 (0.041%) were called active. The shares of active, inactive and inconclusive entries below differ from those in the screen. Calls come from the whole dose curve; as a rule, active = well fitted inhibition curve with a large enough effect; inconclusive = small, poorly fitted or top-dose-only effect; inactive = flat fitted curve, though single readings scatter. Potencies of inconclusive entries are left out as doubtful fits.

biological target: Beta-lactamase (Escherichia coli (strain K12)) (UniProt P00811); test: qHTS Inhibitors of AmpC Beta-Lactamase (assay with detergent); details: AmpC hydrolysis of nitrocefin, absorbance 480 nm, 0.01% Triton; series mostly up to 114 µM; note: nearly all actives have a fitted effect of over 25% in size
Sequence of UniProt P00811 (P00811 whole entry, looked up): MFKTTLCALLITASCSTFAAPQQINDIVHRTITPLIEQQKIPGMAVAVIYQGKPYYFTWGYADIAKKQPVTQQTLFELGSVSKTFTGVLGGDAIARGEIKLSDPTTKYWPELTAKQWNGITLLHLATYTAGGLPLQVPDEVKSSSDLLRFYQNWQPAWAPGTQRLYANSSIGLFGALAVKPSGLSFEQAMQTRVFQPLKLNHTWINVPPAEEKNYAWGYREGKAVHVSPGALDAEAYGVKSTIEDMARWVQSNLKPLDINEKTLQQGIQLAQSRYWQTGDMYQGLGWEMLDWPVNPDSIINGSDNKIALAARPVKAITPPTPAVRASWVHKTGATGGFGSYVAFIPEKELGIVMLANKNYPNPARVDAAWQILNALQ
How it was run: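 AmpC (5.3 nM in the dispensed reagent) in 20 mM phosphate pH 7.0 with 0.01% (detergent screen) or 0.0001% Triton X-100 was preincubated with compounds for 15 min at room temperature. Nitrocefin was then added from an 800 uM solution, and hydrolysis was followed at 480 nm.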
Potency is the fitted concentration of half-maximal effect; tags give direction and shape of the fitted curve.

Compound	Potency
COC(=O)c1ccc(C2/C(=C(\O)c3ccc4c(c3)OCCO4)C(=O)C(=O)N2CCCN(C)C)cc1 (stereo not drawn)	inconclusive [inhibitor, full curve, poor fit]
O=C(NCc1cccs1)C1CCCN1C(=O)Nc1ccccc1 (stereo not drawn)	inconclusive [inhibitor, full curve, poor fit]
O=C(Nc1ccccc1Cl)c1cccc(COc2cc(Cl)ccc2Cl)c1	inactive
CCC1(c2ccc(F)cc2)NC(=O)N(CC(=O)Nc2cc(C)on2)C1=O (stereo not drawn)	inconclusive [inhibitor, partial curve, poor fit]
COC(=O)N1C(=O)[C@@](CC(C)C)(c2ccccc2)N1C(=O)OC	inactive
Fc1ccc2nc(-c3ccccc3)nc(SCc3nnc(-c4ccccc4)o3)c2c1	inconclusive [inhibitor, full curve, poor fit]
COC(=O)C1(CC2CC(c3ccc(Cl)cc3)=NO2)CCN(C(=O)OC(C)(C)C)CC1 (stereo not drawn)	inconclusive [inhibitor, full curve]
CCCC(=O)Nc1ccc(NC(=O)c2ccccc2F)cn1	inconclusive [inhibitor, partial curve]
O=C(CSc1nc2c([nH]c3ccccc32)c(=O)n1-c1ccccc1)Nc1ccccc1C(F)(F)F	inactive
COC(=O)c1c(-c2cccc(OC)c2)csc1N	inactive
COCc1cc(C)nc2sc(C(=O)Nc3nccs3)c(N)c12	inconclusive [inhibitor, full curve]
Cc1ccc(OCc2nnc(SCC(=O)NC3CCCCC3)n2C)cc1	inconclusive [inhibitor, full curve, poor fit]
Cc1cc(NC(=O)c2ccccc2F)nc2c1c(=O)oc1ccccc12	inactive
CCc1ccc(NC(=O)Nc2ccsc2C(=O)OC)cc1	inconclusive [inhibitor, full curve, poor fit]
Cc1c(NC(=O)CSc2ncnc3ccccc23)c(=O)n(-c2ccccc2)n1C	inconclusive [inhibitor, full curve, poor fit]
Nc1ccc(C(=O)OCC(=O)Nc2cc([N+](=O)[O-])ccc2F)cc1	inconclusive [inhibitor, single point]
NC(=O)COC(=O)c1ccc2c(c1)C(=O)N(Cc1ccco1)C2=O	inconclusive [inhibitor, full curve, poor fit]
N#Cc1ccc(OCC(=O)NCCc2ccc(S(N)(=O)=O)cc2)cc1	inconclusive [inhibitor, full curve, poor fit]
CCN1C(=O)/C(=C/c2ccc(N3CCCC3)cc2)NC1=S	inactive
CC(C)(C)C1CCC(=NNC(=O)CC(=O)NCc2ccccc2)CC1 (stereo not drawn)	inconclusive [inhibitor, full curve]
CCOc1cccc(/C=C(/C#N)c2nc3ccccc3[nH]2)c1OCC(=O)O	inconclusive [inhibitor, full curve, poor fit]
COc1ccc(CN(CC2CCCO2)S(=O)(=O)c2ccc(C(=O)O)cc2)cc1OC (stereo not drawn)	inconclusive [inhibitor, partial curve, poor fit]
O=c1c2ccccc2nc(CNCc2ccco2)n1-c1ccc(F)cc1	inconclusive [inhibitor, partial curve, poor fit]

Compound	Potency
CCN(CC)S(=O)(=O)c1cc(C(=O)Oc2cccc(-c3cnc4ccccc4n3)c2)ccc1Br	inactive
O=C(Nc1nnc(-c2ccc3c(c2)CCCC3)o1)C1COc2ccccc2O1 (stereo not drawn)	inconclusive [inhibitor, full curve, poor fit]
CCOC(=O)N1CCN(C(=O)c2ccc(N3C(=O)CCC3=O)cc2)CC1	inconclusive [inhibitor, full curve, poor fit]
CCC(=O)Nc1sc(C(=O)OC)c(C)c1C(=O)OC	inconclusive [inhibitor, partial curve]
O=C(COC(=O)C1(c2ccccc2F)CCCC1)Nc1ncc(C(F)(F)F)cc1Cl	inconclusive [inhibitor, partial curve]
COc1ccccc1NC(=O)CCNC(=O)Cn1ccc2ccccc2c1=O	inconclusive [inhibitor, full curve, poor fit]
C=C1C[C@H]2[C@@H]3C=C(C)C4=CC(=O)CC[C@]4(C)[C@H]3CC[C@]2(C)[C@@]1(OC(C)=O)C(C)=O	inactive
Cc1ccc(/C(O)=C2/C(=O)C(=O)N(CCN3CCOCC3)C2c2ccccn2)cc1 (stereo not drawn)	inactive
Cc1ccc2c(c1)-c1nc(-c3ccccc3)cc(-c3ccccc3)c1CO2	inactive
Cc1ccc(S(=O)(=O)n2cnc3cc([N+](=O)[O-])ccc32)cc1C	inactive
CCCN(CCC)S(=O)(=O)c1ccc(C(=O)N2CCC(=O)c3ccccc32)cc1	inactive
COc1ccc(C(NC(C)=O)c2cc(Cl)c3cccnc3c2O)cc1 (stereo not drawn)	inconclusive [inhibitor, full curve]
COc1cccc(Nc2ccc(N3CCCCC3)cc2)c1OC	inactive
COc1cc2c(cc1OC)C(c1ccc(-c3ccc(Cl)c(Cl)c3)o1)=NCC2	inactive
COc1ccccc1CNc1ccc(N2CCCCC2)cc1	inconclusive [inhibitor, partial curve, poor fit]
CCC(=O)N/N=C(\C)CC(=O)Nc1ccc(F)cc1	inactive
CC1(c2ccccc2)NC(=O)N(CC(=O)Nc2ccc3c(c2)OCO3)C1=O (stereo not drawn)	inactive
O=C(Nc1cccc(F)c1)c1sc(Cl)nc1-c1ccccc1	inconclusive [inhibitor, partial curve, poor fit]
CCCCN(C)c1nc(-c2ccco2)c2c(c1C#N)CC(C)(C)OC2	inconclusive [inhibitor, full curve]
COc1ccc(CNC(=O)c2ccc(-c3nc(CSc4ccccc4)c(C)o3)cc2)cc1	inactive
CC(C)c1ccc(C(=O)Nc2ccc(N3CCOCC3)cc2)cc1	inconclusive [inhibitor, partial curve, poor fit]
O=C(Nc1ccccc1)NC1(C(=O)N2CCN(C(=O)c3ccco3)CC2)CCCCC1	inconclusive [inhibitor, full curve, poor fit]
Cc1nc(N2CCN(C)CC2)c2c3c(sc2n1)CCCC3	inactive

Compound	Potency
S=C(Nc1ccccc1Cl)N1CCCC(c2ccccc2)=N1	inconclusive [inhibitor, single point]
COC(C(=O)N/N=C(\C)c1ccc(C(C)(C)C)cc1)c1ccccc1 (stereo not drawn)	inconclusive [inhibitor, partial curve, poor fit]
CCCCN(CCCC)CCn1cnc2c([nH]c3ccc(OC)cc32)c1=O	inconclusive [inhibitor, partial curve]
O=C(CSCc1ccccc1Br)NC1CC1	inconclusive [inhibitor, full curve, poor fit]
CC(C)NS(=O)(=O)c1ccc2c(c1)oc(=O)n2C	inactive
CC(=Nc1ccc(O)cc1)c1sc2ccccc2c1O	inactive
CC(C)(C)C(=O)NCc1ccc(C(=O)CSc2nnc(-c3ccncc3)n2C2CC2)s1	inconclusive [inhibitor, full curve, poor fit]
O=c1oc(Cl)c(Cl)c2ccccc12	inactive
CCc1ccc(CN(C)C(=O)c2cc(COc3ccc(-n4cncn4)cc3)on2)cc1	inconclusive [inhibitor, full curve]
O=C(COc1ccc2ccccc2c1)NNC(=O)Cc1ccccc1	inconclusive [inhibitor, partial curve]
CCC(C)C(=O)Nc1ccc(S(=O)(=O)N2CCCC2)cc1 (stereo not drawn)	inconclusive [inhibitor, partial curve, poor fit]
COc1ccc(NC(=S)Nc2cccc(C)n2)cc1	inactive
O=C(Nc1ccccn1)c1ccc(S(=O)(=O)N2CCCCC2)cc1	inconclusive [inhibitor, full curve, poor fit]
CCOC(=O)C1=C(O)/C(=C/c2cc(OC)c(O)c(OC)c2)SC1=Nc1ccc(OC)cc1	inconclusive [inhibitor, full curve, poor fit]
O=C(CCn1nnc2ccccc21)Nc1nnc(Cc2ccc(F)cc2)s1	inconclusive [inhibitor, partial curve]
Cc1ccc(S(=O)(=O)NCC(=O)OC(C)C(=O)Nc2ncc(Cl)cc2Cl)cc1 (stereo not drawn)	inconclusive [inhibitor, full curve, poor fit]
COCC(=O)/C=C1\Sc2ccccc2N1C	inconclusive [inhibitor, single point]
O=[N+]([O-])c1cccc2ccc(/C=C/c3ccc(C(F)(F)F)cc3)nc12	inactive
Cc1ccc(OC(=O)c2ccc3nc(C)sc3c2)cc1	inconclusive [inhibitor, full curve, poor fit]
COC(=O)c1[nH]c2cc(OC)c(OC)cc2c1NC(=O)c1cccc(OC)c1	inconclusive [inhibitor, partial curve, poor fit]
O=C(CN(Cc1ccco1)C(=O)c1cc(=O)[nH]c2ccccc12)Nc1ccccc1Br	inactive
CCC(Oc1ccccc1)C(=O)Nc1nnc(S(=O)(=O)N2CCCC2)s1 (stereo not drawn)	inconclusive [inhibitor, partial curve, poor fit]
